# The supplement of paper PMC8728848
# The list shows a part of the results.
# Tests used:
# Assay in all cases: glycan array binding signal (z-score within array); higher = stronger binding
# Details in all cases: glycan notation: IUPAC condensed, linker removed
# [1] = target: Gal(b1-3)GlcNAc(b1-3)Gal(b1-3)GlcNAc
# In short: (§1)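 Glycan array data came from 3228 arrays in the Consortium for Functional Glycomics database, and only arrays with an available protein sequence were kept. Glycan names were put into IUPAC-condensed notation, and columns mapping to the same glycan were averaged. The binding signal is a within-array Z-score, averaged across arrays of one protein sequence run at different concentrations or buffers and across linkers. A negative Z-score can be read as non-binding.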
# [2] = target: Gal(b1-3)GlcNAc(b1-3)Gal(b1-4)Glc
# In short: as §1
# [3] = target: Gal(b1-3)GlcNAc(b1-3)Gal(b1-4)GlcNAc
# In short: as §1
# [4] = target: Gal(b1-3)GlcNAc(b1-3)Gal(b1-4)GlcNAc(b1-2)Man(a1-3)[Gal(b1-3)GlcNAc(b1-3)Gal(b1-4)GlcNAc(b1-2)Man(a1-6)]Man(b1-4)GlcNAc(b1-4)GlcNAc
# In short: as §1
# [5] = target: Gal(b1-3)GlcNAc(b1-3)Gal(b1-4)GlcNAc(b1-2)[Gal(b1-3)GlcNAc(b1-3)Gal(b1-4)GlcNAc(b1-6)]Man(a1-6)[Gal(b1-3)GlcNAc(b1-3)Gal(b1-4)GlcNAc(b1-2)Man(a1-3)]Man(b1-4)GlcNAc(b1-4)[Fuc(a1-6)]GlcNAc
# In short: as §1
# [6] = target: Gal(b1-3)GlcNAc(b1-3)Gal(b1-4)GlcNAc(b1-3)Gal(b1-4)GlcNAc(b1-2)[Gal(b1-3)GlcNAc(b1-3)Gal(b1-4)GlcNAc(b1-3)Gal(b1-4)GlcNAc(b1-6)]Man(a1-6)[Gal(b1-3)GlcNAc(b1-3)Gal(b1-4)GlcNAc(b1-3)Gal(b1-4)GlcNAc(b1-2)Man(a1-3)]Man(b1-4)GlcNAc(b1-4)[Fuc(a1-6)]GlcNAc
# In short: as §1
# [7] = target: Gal(b1-3)GlcNAc(b1-3)Gal(b1-4)GlcNAc(b1-6)[Gal(b1-3)GlcNAc(b1-3)]Gal(b1-4)Glc
# In short: as §1
# [8] = target: Gal(b1-3)GlcNAc(b1-3)Gal(b1-4)[Fuc(a1-3)]GlcNAc
# In short: as §1
# [9] = target: Gal(b1-3)GlcNAc(b1-3)Gal(b1-4)[Fuc(a1-3)]GlcNAc(b1-6)[Gal(b1-3)GlcNAc(b1-3)]Gal(b1-4)Glc
# In short: as §1
# [10] = target: Gal(b1-3)GlcNAc(b1-3)GalNAc
# In short: as §1
# [11] = target: Gal(b1-3)GlcNAc(b1-6)Gal(b1-4)GlcNAc
# In short: as §1
# [12] = target: Gal(b1-3)GlcNAc(b1-6)GalNAc
# In short: as §1
# [13] = target: Gal(b1-3)GlcNAc(b1-6)[Gal(b1-3)]GalNAc
# In short: as §1
# Gal(b1-3)GlcNAc6S = target: Gal(b1-3)GlcNAc6S
# In short: as §1
# [14] = target: Gal(b1-3)[Fuc(a1-4)]GlcNAc
# In short: as §1
# [15] = target: Gal(b1-3)[Fuc(a1-4)]GlcNAc(b1-2)Man
# In short: as §1
# [16] = target: Gal(b1-3)[Fuc(a1-4)]GlcNAc(b1-2)Man(a1-3)[Gal(b1-3)[Fuc(a1-4)]GlcNAc(b1-2)Man(a1-6)]Man(b1-4)GlcNAc(b1-4)GlcNAc
# In short: as §1
# [17] = target: Gal(b1-3)[Fuc(a1-4)]GlcNAc(b1-2)Man(a1-3)[Gal(b1-3)[Fuc(a1-4)]GlcNAc(b1-2)Man(a1-6)]Man(b1-4)GlcNAc(b1-4)[Fuc(a1-6)]GlcNAc
# In short: as §1
# [18] = target: Gal(b1-3)[Fuc(a1-4)]GlcNAc(b1-3)Gal(b1-3)[Fuc(a1-4)]GlcNAc
# In short: as §1
# [19] = target: Gal(b1-3)[Fuc(a1-4)]GlcNAc(b1-3)Gal(b1-4)GlcNAc
# In short: as §1
# [20] = target: Gal(b1-3)[Fuc(a1-4)]GlcNAc(b1-3)Gal(b1-4)[Fuc(a1-3)]GlcNAc
# In short: as §1
# [21] = target: Gal(b1-3)[Fuc(a1-4)]GlcNAc(b1-6)GalNAc
# In short: as §1
# [22] = target: Gal(b1-3)[GlcNAc(b1-6)]GalNAc
# In short: as §1
# [23] = target: Gal(b1-3)[Neu5Ac(a2-6)]GalNAc
# In short: as §1
# [24] = target: Gal(b1-3)[Neu5Ac(a2-6)]GlcNAc(b1-4)Gal(b1-4)Glc
# In short: as §1
# [25] = target: Gal(b1-3)[Neu5Ac(a2-6)]GlcNAc(b1-6)Gal(b1-4)Glc
# In short: as §1
# [26] = target: Gal(b1-3)[Neu5Ac(b2-6)]GalNAc
# In short: as §1
# Gal(b1-4)Gal = target: Gal(b1-4)Gal
# In short: as §1
# [27] = target: Gal(b1-4)GalNAc(a1-3)[Fuc(a1-2)]Gal(b1-4)GlcNAc
# In short: as §1
# [28] = target: Gal(b1-4)GalNAc(b1-3)[Fuc(a1-2)]Gal(b1-4)GlcNAc
# In short: as §1
# Gal(b1-4)Glc = target: Gal(b1-4)Glc
# In short: as §1
# Gal(b1-4)Glc6S = target: Gal(b1-4)Glc6S
# In short: as §1
# Gal(b1-4)GlcNAc = target: Gal(b1-4)GlcNAc
# In short: as §1
# [29] = target: Gal(b1-4)GlcNAc(a1-6)Gal(b1-4)GlcNAc
# In short: as §1
# Gal(b1-4)GlcNAc(b1-2)Man = target: Gal(b1-4)GlcNAc(b1-2)Man
# In short: as §1
# [30] = target: Gal(b1-4)GlcNAc(b1-2)Man(a1-3)Man(b1-4)GlcNAc(b1-4)GlcNAc
# In short: as §1
# [31] = target: Gal(b1-4)GlcNAc(b1-2)Man(a1-3)[Gal(b1-4)GlcNAc(b1-2)Man(a1-6)]Man(b1-4)GlcNAc(b1-4)GlcNAc
# In short: as §1
# [32] = target: Gal(b1-4)GlcNAc(b1-2)Man(a1-3)[Gal(b1-4)GlcNAc(b1-2)Man(a1-6)]Man(b1-4)GlcNAc(b1-4)[Fuc(a1-6)]GlcNAc
# In short: as §1
# [33] = target: Gal(b1-4)GlcNAc(b1-2)Man(a1-3)[Gal(b1-4)GlcNAc(b1-2)Man(a1-6)][Gal(b1-4)GlcNAc(b1-4)]Man(b1-4)GlcNAc(b1-4)[Fuc(a1-6)]GlcNAc
# In short: as §1
# [34] = target: Gal(b1-4)GlcNAc(b1-2)Man(a1-3)[Gal(b1-4)GlcNAc(b1-2)Man(a1-6)][GlcNAc(b1-4)]Man(b1-4)GlcNAc(b1-4)[Fuc(a1-6)]GlcNAc
# In short: as §1
# [35] = target: Gal(b1-4)GlcNAc(b1-2)Man(a1-3)[GlcNAc(b1-2)Man(a1-6)]Man(b1-4)GlcNAc(b1-4)GlcNAc
# In short: as §1
# [36] = target: Gal(b1-4)GlcNAc(b1-2)Man(a1-3)[GlcNAc(b1-4)][Gal(b1-4)GlcNAc(b1-2)Man(a1-6)]Man(b1-4)GlcNAc(b1-4)GlcNAc
# In short: as §1
# [37] = target: Gal(b1-4)GlcNAc(b1-2)Man(a1-3)[Man(a1-6)]Man(b1-4)GlcNAc(b1-4)GlcNAc
# In short: as §1
# [38] = target: Gal(b1-4)GlcNAc(b1-2)Man(a1-6)Man(b1-4)GlcNAc(b1-4)GlcNAc
# In short: as §1
# [39] = target: Gal(b1-4)GlcNAc(b1-2)Man(a1-6)[GlcNAc(b1-2)Man(a1-3)]Man(b1-4)GlcNAc(b1-4)GlcNAc
# In short: as §1
binder,measurement,setting,value
"HPA (Helix pomatia), Q2F1K8 (protein) MQAFYSGLLLLCVVAFAAAQRVQSGKIDCGNDAGWAKVPSDDPGRDNTRELAKNITFASPYCRPPVVLLSITQLDVEQSQNLRVIARLYSVSPTGFKASCYTWHNTKVYSMSISWISIENY",glycan array binding signal (z-score),[1],-0.292
same,glycan array binding signal (z-score),[2],-0.217
same,glycan array binding signal (z-score),[3],-0.227
same,glycan array binding signal (z-score),[4],-0.021
same,glycan array binding signal (z-score),[5],-0.013
same,glycan array binding signal (z-score),[6],0.092
same,glycan array binding signal (z-score),[7],-0.34
same,glycan array binding signal (z-score),[8],-0.245
same,glycan array binding signal (z-score),[9],-0.222
same,glycan array binding signal (z-score),[10],-0.051
same,glycan array binding signal (z-score),[11],-0.303
same,glycan array binding signal (z-score),[12],-0.329
same,glycan array binding signal (z-score),[13],-0.205
same,glycan array binding signal (z-score),Gal(b1-3)GlcNAc6S,-0.491
same,glycan array binding signal (z-score),[14],-0.071
same,glycan array binding signal (z-score),[15],-0.063
same,glycan array binding signal (z-score),[16],2.87
same,glycan array binding signal (z-score),[17],0.187
same,glycan array binding signal (z-score),[18],0.312
same,glycan array binding signal (z-score),[19],-0.281
same,glycan array binding signal (z-score),[20],-0.178
same,glycan array binding signal (z-score),[21],0.042
same,glycan array binding signal (z-score),[22],-0.136
same,glycan array binding signal (z-score),[23],-0.168
same,glycan array binding signal (z-score),[24],-0.283
same,glycan array binding signal (z-score),[25],-0.38
same,glycan array binding signal (z-score),[26],-0.122
same,glycan array binding signal (z-score),Gal(b1-4)Gal,-0.293
same,glycan array binding signal (z-score),[27],-0.24
same,glycan array binding signal (z-score),[28],-0.052
same,glycan array binding signal (z-score),Gal(b1-4)Glc,-0.081
same,glycan array binding signal (z-score),Gal(b1-4)Glc6S,-0.161
same,glycan array binding signal (z-score),Gal(b1-4)GlcNAc,-0.173
same,glycan array binding signal (z-score),[29],-0.184
same,glycan array binding signal (z-score),Gal(b1-4)GlcNAc(b1-2)Man,-0.271
same,glycan array binding signal (z-score),[30],-0.229
same,glycan array binding signal (z-score),[31],-0.207
same,glycan array binding signal (z-score),[32],-0.228
same,glycan array binding signal (z-score),[33],-0.288
same,glycan array binding signal (z-score),[34],-0.272
same,glycan array binding signal (z-score),[35],-0.182
same,glycan array binding signal (z-score),[36],-0.311
same,glycan array binding signal (z-score),[37],-0.283
same,glycan array binding signal (z-score),[38],-0.244
same,glycan array binding signal (z-score),[39],-0.313
